About 220 (0.56%) of roughly 39,000 compounds showed activity. The list shows a part of the results.
test system: Escherichia coli K-12 BW25113; assay: relative growth (OD600 normalised to plate interquartile mean) (fraction); higher = less growth inhibition, active = 0.2 or less; conditions: 50 µM; LB; incubation time: overnight (16-24 h)
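Also: static incubation at 37 °C against the wild-type strain, values averaged over two biological replicates.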

SMILES	relative growth
CO[C@H]1CN(C)C(=O)c2cc(NC(=O)c3ccccc3)ccc2OC[C@@H](C)N(C(=O)CN(C)C)C[C@H]1C	inactive: 0.977
c1cc([C@@H]2CNCCN2)[nH]n1	inactive: 1.05
CN([NH2+][O-])c1ccc(O)c(O)c1	inactive: 1.02
CC(C)(C)c1cc2[nH]c(N)nc(=N)n2n1	inactive: 1.01
COc1ccc2c3c([nH]c2c1)[C@H](CO)N(C[C@]13CN(C1)S(=O)(=O)C)C(=O)C1CCOCC1	inactive: 1
NCc1ccccc1CN1CCOCC1	inactive: 1.01
C[C@H](CO)N1C[C@H](C)[C@@H](CN(C)Cc2ccc(C(F)(F)F)cc2)OCCCC[C@H](C)Oc2ccc(NS(=O)(=O)c3cccs3)cc2C1=O	inactive: 0.949
COc1ccc(COC[C@@]23Oc4ccccc4[C@@H](NC(=O)N2C)[C@H]3COC(=O)NCCCCCC(=O)NO)cc1	inactive: 0.996
C[C@@H]1CN([C@@H](C)CO)C(=O)c2cc(NS(=O)(=O)c3cn(C)cn3)ccc2O[C@H]1CN(C)S(=O)(=O)c1ccccc1	inactive: 0.989
C[C@@H]1CN([C@@H](C)CO)C(=O)c2cc(C#Cc3ccccc3)cnc2O[C@H]1CN(C)C(=O)CCN1CCCCC1	inactive: 1.04
O=C(C[C@@H]1CC[C@@H]2[C@H](COC[C@@H](O)CN2C(=O)Nc2cccc(Cl)c2)O1)NCCCN1CCOCC1	inactive: 0.934
CON=C(C(=O)NC1C(=O)N2C(C(=O)OC(C)OC(C)=O)=C(COC(N)=O)CSC12)c1ccco1 (stereo not drawn)	inactive: 0.881
C[C@@H]1CN([C@@H](C)CO)C(=O)c2cc(NC(=O)NC3CCCCC3)ccc2O[C@@H](C)CCCCO[C@H]1CN(C)S(=O)(=O)c1ccc(F)cc1	inactive: 0.996
C[C@H](CO)N1C[C@H](C)[C@@H](CN(C)C(=O)Nc2ccc3c(c2)OCO3)Oc2ccc(NC(=O)CCN3CCOCC3)cc2C1=O	inactive: 1
COc1ccc(NC(=O)N(C)C[C@@H]2Oc3ccc(NC(=O)CCCCCC(=O)Nc4ccccc4N)cc3CC(=O)N([C@H](C)CO)C[C@H]2C)cc1	inactive: 0.985
COc1ccc(NC(=O)Nc2cccc3c2O[C@H](CN(C)C(=O)Nc2ccc(C(F)(F)F)cc2)[C@H](C)CN([C@@H](C)CO)C3=O)cc1	inactive: 0.931
C[C@H]1CCCCO[C@H](CN(C)C(=O)C2CCCCC2)[C@@H](C)CN([C@@H](C)CO)C(=O)c2cc(NC(=O)Nc3cccc4ccccc34)ccc2O1	inactive: 1.03
CN1C(=O)c2cc(NC(=O)C3CCCC3)ccc2OC[C@H]2O[C@@H](CC(=O)NCCc3ccncc3)CC[C@H]21	inactive: 0.994
N[C@H](CC(=O)O)C(=O)O	inactive: 1.01
O=C1O[C@H](c2ccccc2)[C@H](c2ccccc2)N2[C@H]1[C@@H](C(=O)O)[C@]1(C(=O)Nc3ccc(C#CC4=CCCCC4)cc31)[C@H]2c1ccc(O)cc1	inactive: 0.974
C[C@H](CO)N1C[C@H](C)[C@H](CN(C)C(=O)Nc2ccc3c(c2)OCO3)Oc2ccc(NC(=O)Nc3ccc(C(F)(F)F)cc3)cc2C1=O	inactive: 0.992

SMILES	relative growth
CC(C)=CCC/C(C)=C/CC/C(C)=C/CC/C(C)=C/CO	inactive: 1.1
C[C@H](CO)N1C[C@H](C)[C@@H](CN(C)CC2CCCCC2)OCCCC[C@H](C)Oc2ccc(NS(=O)(=O)c3ccc(Cl)cc3)cc2C1=O	inactive: 0.992
C[C@@H]1CN([C@@H](C)CO)C(=O)Cc2cc(NC(=O)Nc3ccc(C(F)(F)F)cc3)ccc2O[C@@H]1CN(C)S(C)(=O)=O	inactive: 0.978
Cc1noc(C)c1NC(=O)Nc1ccc2c(c1)C(=O)N([C@@H](C)CO)C[C@H](C)[C@@H](CN(C)Cc1ccc3c(c1)OCO3)OCCCC[C@H](C)O2	inactive: 0.991
COc1cc2c(cc1OC)C1C(=O)c3c(O)cc4c(c3OC1CO2)C=CC(C)(C)O4 (stereo not drawn) [alpha-TOXICAROL (dl)]	inactive: 1.08
COC(=O)c1c(CC[C@@H](CO)NC(=O)N[C@@H](Cc2ccccc2)Cn2cc(C3(O)CCCCC3)nn2)oc(C(C)=O)c1C(=O)OC	inactive: 1.01
C[C@H](CO)N1C[C@H](C)[C@@H](CN(C)C(=O)NC2CCCCC2)Oc2ccc(NS(=O)(=O)c3cn(C)cn3)cc2C1=O	inactive: 1.01
CCOC(=O)N1CCC(=C2c3ccc(Cl)cc3CCc3cccnc32)CC1	inactive: 0.852
C[C@@H]1CN([C@H](C)CO)C(=O)CCCn2nncc2CO[C@H]1CN(C)Cc1ccc(C(=O)Nc2ccccc2N)cc1	inactive: 1.01
COc1ccc(NC(=O)N(C)C[C@@H]2Oc3ccc(NC(=O)C4CC4)cc3CC(=O)N([C@H](C)CO)C[C@@H]2C)cc1	inactive: 0.994
COc1ccc(NC(=O)Nc2ccc3c(c2)C(=O)N([C@H](C)CO)C[C@@H](C)[C@@H](CN(C)C(=O)NC2CCCCC2)OCCCC[C@@H](C)O3)cc1	inactive: 1.04
C[C@@H]1CN([C@@H](C)CO)C(=O)c2cc(NC(=O)CCC(F)(F)F)ccc2O[C@@H](C)CCCCO[C@@H]1CN(C)Cc1ccc(C(F)(F)F)cc1	inactive: 1.05
C[C@@H]1CCCCO[C@@H](CN(C)C(=O)Nc2ccc(F)cc2)[C@H](C)CN([C@H](C)CO)C(=O)c2cc(NC(=O)Nc3ccccc3)ccc2O1	inactive: 1.02
Cc1cc(/C=N/O)[nH]c(=O)n1	inactive: 1.02
C[C@@H]1CN([C@H](C)CO)C(=O)Cc2cc(NC(=O)Cc3ccccc3)ccc2O[C@H]1CN(C)S(=O)(=O)c1cn(C)cn1	inactive: 0.996
C[C@@H]1CN([C@H](C)CO)C(=O)c2cc(NC(=O)Nc3ccc(F)cc3)ccc2O[C@H]1CN(C)Cc1ccc(C(F)(F)F)cc1	inactive: 0.99
C[C@H](CO)N1C[C@H](C)[C@H](CN(C)CC2CCCCC2)OCCCC[C@H](C)Oc2ccc(NC(=O)Cc3ccccc3)cc2C1=O	inactive: 0.981
CNS(=O)(=O)c1ccc(C)cc1	inactive: 0.986
CC(=O)N[C@H]1CC[C@@H](CCNC(=O)C2CC2)O[C@@H]1CO	inactive: 0.978
Cc1noc(C)c1S(=O)(=O)Nc1ccc2c(c1)CC(=O)N([C@@H](C)CO)C[C@H](C)[C@@H](CN(C)Cc1ccccc1)O2	inactive: 0.986
C[C@H](CO)N1C[C@H](C)[C@H](CN(C)S(C)(=O)=O)OCCCC[C@H](C)Oc2ccc(NS(=O)(=O)c3ccccc3)cc2C1=O	inactive: 0.991

SMILES	relative growth
CN(CC(N)=O)S(=O)(=O)c1ccc(F)cc1	inactive: 0.949
NC(=O)c1ccccc1O	inactive: 1.15
C[C@@H]1CN([C@H](C)CO)C(=O)c2cc(NC(=O)CCC(F)(F)F)ccc2O[C@@H]1CN(C)C(=O)Nc1ccc(C(F)(F)F)cc1	inactive: 1.02
C[C@H]1CN([C@@H](C)CO)S(=O)(=O)c2ccc(C3=CCCCC3)cc2O[C@H]1CN(C)S(=O)(=O)c1cn(C)cn1	inactive: 1.01
C[C@@H]1CN([C@H](C)CO)C(=O)c2cc(NC(=O)CCC(F)(F)F)ccc2O[C@@H](C)CCCCO[C@@H]1CN(C)C(=O)NC1CCCCC1	inactive: 0.983
C[C@@H]1CN([C@@H](C)CO)C(=O)c2cc(NC(=O)Cn3cnnn3)ccc2O[C@@H]1CN(C)Cc1ccc(Cl)c(Cl)c1	inactive: 0.993
COc1ccc(C(=O)CCC(=O)O)c2ccccc12	inactive: 0.944
C[C@@H]1CN([C@H](C)CO)C(=O)c2cc(NC(=O)Nc3ccc(C(F)(F)F)cc3)ccc2O[C@@H](C)CCCCO[C@@H]1CN(C)Cc1ccc(Cl)c(Cl)c1	inactive: 1.04
C[C@@H]1CN([C@H](C)CO)C(=O)c2cc(NC(=O)Cn3cnnn3)ccc2O[C@H]1CN(C)S(=O)(=O)c1ccc(Cl)cc1	inactive: 0.929
COc1c(C)cccc1C(=O)N1CC[C@H](c2nn(CCN)c3ncccc23)C1	inactive: 1.04
COc1ccc(NC(=O)N(C)C[C@H]2Oc3ccc(NC(=O)Nc4cccc5ccccc45)cc3CC(=O)N([C@@H](C)CO)C[C@@H]2C)cc1	inactive: 1.03
COc1cc2c(cc1OC)-c1cc3ccc(OC)c(OC)c3c[n+]1CC2.[Cl-]	inactive: 0.887
CCC(=O)N[C@@H]1C=C[C@@H](CC(=O)OC)O[C@@H]1CO	inactive: 1.03
Cc1noc(C)c1S(=O)(=O)Nc1ccc2c(c1)C(=O)N([C@H](C)CO)C[C@H](C)[C@@H](CN(C)Cc1ccc(C(F)(F)F)cc1)OCCCC[C@H](C)O2	inactive: 1.04
CO[C@@H]1CN(C)C(=O)c2cc(NS(C)(=O)=O)ccc2OC[C@H](C)N(C(=O)C2CCOCC2)C[C@H]1C	inactive: 1.02
C[C@@H]1CN(C)C(=O)c2cc(NC(=O)Nc3ccccc3)ccc2O[C@@H](C)CCCCO[C@@H]1CN(C)S(=O)(=O)c1ccc(F)cc1	inactive: 1.01
COC(=O)C[C@H]1CC[C@H]2[C@@H](COC[C@H](O)CN2S(=O)(=O)c2cn(C)cn2)O1	inactive: 0.974
C[C@H]1CN([C@@H](C)CO)C(=O)CCCn2cc(nn2)CO[C@@H]1CN(C)S(=O)(=O)c1ccc2c(c1)OCCCO2	inactive: 0.982
C[C@@H]1CN([C@H](C)CO)C(=O)c2cc(NC(=O)Cc3cn(C)c4ccccc34)ccc2O[C@H]1CN(C)C(=O)Nc1ccc(C(F)(F)F)cc1	inactive: 1.05
COc1ccc(S(=O)(=O)N(C)C[C@@H]2Oc3ccc(NC(=O)CCCN(C)C)cc3C(=O)N([C@@H](C)CO)C[C@H]2C)cc1	inactive: 1.01
CC[C@@H](Sc1n[nH]c(=O)[nH]c1=O)C(=O)O	inactive: 1.01
